Test results as given in the supplement of paper PMC11417369.
± gives the standard deviation of the averaged measurements. This is one part of the list.

Test system: PfAP2-EXP AP2 domain (GST-tagged)
Assay: gcPBM binding intensity (ln(normalized median fluorescence intensity)); higher = stronger DNA binding
In short: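 Each value is the highest Masliner-normalised natural-log median intensity across replicate spots of either orientation of a probe. The probes were primer-extended double-stranded 36-bp intergenic genomic sequences on an Agilent 4 × 180k array, alongside negative controls, exposed for 1 h to GST-tagged P. falciparum DNA-binding domains expressed in E. coli. Bound protein was picked up with Alexa488 anti-GST antibody and scanned at 488 nm.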

Sequence | gcPBM binding intensity (ln)
TACAATCTTTCATTATGTACTTAACATTTTTTCTGT [XGTACX_site8752] | 8.74 ± 0.34
TTATATGTATATATATGTATATATATATATATATAG [TGCATGCA_negctrl_site461] | 8.23 ± 0.092
CGATTTTTTTTTTATTGTACTTGCTCGCATGCAATA [XGTACX_site4727] | 9.12 ± 0.13
TGTATACCTTAATATACACACATACAGATATATATA [CACACA_site4860] | 8.41 ± 0.29
ATATGCATTTTTATACGTACATATTTCTTTTCGTTA [XGTACX_site1497] | 9.22 ± 0.14
TGTTTTATTTAGAAGGTGCACATTAATATTAAATAA | 9.67 ± 0.89
ACAAAAGGGGAATACACACACATATATAAATAAATA [CACACA_site7111] | 8.73 ± 0.45
CATATTTTTATGAGATGTACAATAAGAAATATGTAA [XGTACX_site2389] | 8.66 ± 0.38
GCATAAACGGATAATTAATTATATTATATTATATCA [CACACA_negctrl_site1519] | 8.24 ± 0.41
TCGTGAATGATTTAAGTACACACCGGTATTTATTCA [CACACA_site1564] | 8.39 ± 0.52
TTATCCTTGTAACAATGTACACATTATTTAATACTT [XGTACX_site1830] | 8.64 ± 0.31
TATTGTTGTCTTTACACATGCAACAAAAGAAGAAAA [TGCATGCA_site911] | 8.91 ± 0.26
ATTTATTTATATATATTATTTGTTTTAATTTACTTA [XGTACX_negctrl_site246] | 8.45 ± 0.35
TTTTTTTTTTGATGCACACACCTGAACGAGTTAATA [CACACA_site4329] | 8.83 ± 0.37
CATACAGATGGACACACACACACACCCACAGACAAA [CACACA_site4431] | 8.64 ± 0.55
CATATCTCTTATTAATGTACATTTTTAAAAGTAAAT [XGTACX_site2847] | 8.51 ± 0.36
TTTATATAATGGAAAAGTACTCAGGAAATTTATACA [XGTACX_site3635] | 8.65 ± 0.28
CTTTTTTTTATGAACAGTACAGAAATATATATATAC [XGTACX_site5613] | 8.73 ± 0.43
CAAGAACAAAAAATATGTACATATAATTATATATAT [XGTACX_site2082] | 8.83 ± 0.27
TTAAAATTAAAAATAGGTACACATATGAACAAGGAC [XGTACX_site1180] | 9.36 ± 0.38
TTATATGATATATGACGTACATATTAATAACATCTA [XGTACX_site6716] | 8.39 ± 0.33
TGTAATATTTTATAAAGTACATTATAATATAATTCA [XGTACX_site2961] | 8.09 ± 0.29
CAATCAACAAAACATACACACACATATATATATATA [CACACA_site8979] | 10 ± 0.26

Sequence | gcPBM binding intensity (ln)
AGATTGAAATATAGTTGTACAAATATTTTAAAACAT [XGTACX_site3026] | 8.69 ± 0.35
TTTTTTTCTATAATACACCAGAAAAAAAAATTAAAA [TGCATGCA_negctrl_site257] | 8.32 ± 0.34
TTGTTCCAATAAAATCGTACAATTAAACAACCAAAC [XGTACX_site5759] | 8.96 ± 0.43
ATATATATAAAATAAAGTACCCGTAAAACCTATATG [XGTACX_site6937] | 8.8 ± 0.4
AAAAAAAAAAAAAAAAAATAATAAAAAATAAAAAAA [GTGCAC_negctrl_site341] | 8.29 ± 0.19
TAATTTATAAATAATTGTACATAGTTTATTTAGATT [XGTACX_site4599] | 8.22 ± 0.4
TAATTATAAAAATAAAACAACCAAATTTGTTATATA [CACACA_negctrl_site750] | 8.32 ± 0.64
GAAAGGAAAAGTTGAACACACAAAGTAAACTATAAG [CACACA_site3535] | 8.88 ± 0.54
GACGACTATATTAATTGTACTCAATTTAAGCATAAT [XGTACX_site2750] | 8.44 ± 0.4
TATGTTAATCCTATTTGTACATATAATCGAATTAAA [XGTACX_site7090] | 8.26 ± 0.44
GCCATTAATTTATACACACACATTAAAATTTTTTAT [CACACA_site4575] | 8.89 ± 0.33
TAATGAAGATATATAACACACAAAAGTTATAAATAT [CACACA_site6678] | 8.64 ± 0.38
ATATATAATAATATATGTACATAATATTTTTTTTTT [XGTACX_site1941] | 8.15 ± 0.49
GCTATAAATACAGACGCACACATATACATACATATA [CACACA_site3329] | 8.77 ± 0.26
AAGAATATATAGGACACACATACAATAATAAATATA [CACACA_site4119] | 8.97 ± 0.39
TATCCTACATTAACAAGTACAAAGAGATCCTACGTA [XGTACX_site4252] | 8.22 ± 0.45
TTTCTCCATATTAAAGTGCATTAATAACAAAAATAA [GTGCAC_site9934] | 8.655 ± 0.021
AACGCCACTTCAATGGCACACACCAATTATTTTTCA [CACACA_site1026] | 8.41 ± 0.36
AAAAAAAAAAAAAATATACACACTAATATATTTTTT [CACACA_site815] | 8.38 ± 0.56
ATATATATATTAATTACACACAAAAAAAAAAAAAAA [CACACA_site1165] | 8.86 ± 0.3
TCATTCGAATAAATTGCACACATGACATCCGTTGTA [CACACA_site2587] | 8.63 ± 0.3
TATTAATAATATAATAGTACTTTCACTGTAAATTTA [XGTACX_site6419] | 8.35 ± 0.45
GTATAGAGAAAAAACTGTACTTTATATAAATATTTA [XGTACX_site3972] | 8.34 ± 0.28

Sequence | gcPBM binding intensity (ln)
TATATACAGATATATACACACATATTTATATTTTAT [CACACA_site7734] | 8.32 ± 0.33
ACAGAAAAAAGACACACACACATAATATACATACAT [CACACA_site6991] | 8.69 ± 0.54
CTTAGATATAAAAATTGTACATACATATTTTTGACA [XGTACX_site2107] | 8.27 ± 0.4
TATATATATATATATACACACACACTAATAAAAAAA [CACACA_site8426] | 10.2 ± 0.21
ATTTTTTAAATGAGGCGTACACAAAAATATAATTAC [XGTACX_site7087] | 9.11 ± 0.36
TTTTTTTCGTAAAAAAAAATAATTATTAAATGAAGG [TGCATGCA_negctrl_site212] | 8.56 ± 0.6
TAAACACCCATATAAACACACATATAAACACCCATA [CACACA_site5382] | 8.84 ± 0.47
TTTATTTATTTTTAACGTACGCACACATATAAATAT [XGTACX_site4042] | 8.8 ± 0.57
TATTTTTAATAAAAACGTACGGAATACAAAAAAAAT [XGTACX_site3477] | 9.07 ± 0.47
TATTATAAAATATACACATGCAAAAACAAAATTTAC [TGCATGCA_site1051] | 9 ± 0.35
TAAAATTTATAAACTACACACATATAAATAGTAATA [CACACA_site7708] | 8.58 ± 0.31
TATATACATTGGTATACATGCATTCTCTTTCATACA [TGCATGCA_site734] | 8.84 ± 0.39
TTAAACATATATTAAGCACACACAAACAAAAAAACA [CACACA_site8816] | 8.86 ± 0.56
TAATTAATCGATTTACGCACATGAACAAAAGCACAT [CACACA_negctrl_site1287] | 8.73 ± 0.2
AACATATTTTTTTGTTGTACTTACAATTATAAGCAT [XGTACX_site3056] | 8.44 ± 0.31
TATACCAAATATATGGGTACACAAATATGTTTATTC [XGTACX_site8932] | 8.49 ± 0.3
TATAAAGCAACTGAAACACACAAATTTTTTTTTTTT [CACACA_site3218] | 8.04 ± 0.46
ATTATTTATTTATGTGTGCGCATGTGTGTAAATATT | 9.04 ± 0.33
ACTATTTTCTTCAAAACATGCACCACATAAACATAA [TGCATGCA_site200] | 9.155 ± 0.007
CCTTTTTTATTTACAACACACGTAAAGGTTCAAATA [CACACA_site1741] | 8.73 ± 0.34
GTAAATATTAATAAAAGTACATATGTAGCATATGGA [XGTACX_site5219] | 8.64 ± 0.31
AAAAAACACAGACATACACACAAAAAGGTTATAAAT [CACACA_site4222] | 8.87 ± 0.51
ATATATATATATATGTGTACATATTTTTTTTTTTTT [XGTACX_site3425] | 10.1 ± 0.32

Sequence | gcPBM binding intensity (ln)
AGAAAAAAAAAAAATGCACACATTTTCATTGTCAGT [CACACA_site1935] | 8.21 ± 0.33
TATATGTATTTATATACACACATATTCTTTTTACAC [CACACA_site8320] | 8.4 ± 0.4
TCCTTTTCATCTTGTAGTACGGAAATGTAGCTCCAA [XGTACX_site8563] | 8.66 ± 0.42
AATATTTTGAACAACAGTACTCTTTCTTTCTTTCTT [XGTACX_site7212] | 8.46 ± 0.53
TGTGTAAATATGTATACACACATATCTGATCAATAT [CACACA_site7507] | 8.46 ± 0.4
TATATCTACTTAAAAAGTACGTAAATTATAAGCTAT [XGTACX_site6420] | 8.38 ± 0.36
AATATTGTTCACAAGGTGCTTTTTATTCATACTAAT | 8.6 ± 0.32
TATGTATAACTCAATGCATGCGAAGGACTATTATTT [TGCATGCA_site222] | 9.25 ± 0.55
ACCTCACAAATGAATACACACAAACATATAGATTTA [CACACA_site6862] | 8.64 ± 0.37
ATATATAAAATTATATGTACATATATCTATTTATAA [XGTACX_site3713] | 8.29 ± 0.3
TTTAAAATTTCTTAATGTACGTAATAAAAAAAAAAA [XGTACX_site4037] | 8.71 ± 0.38
GATTAAAACTTTAACTGTACATAATAATTATCAATC [XGTACX_site5938] | 8.54 ± 0.46
AATAATTATTTGTATAGTACAATATACAAAAGATGA [XGTACX_site4312] | 8.71 ± 0.38
AACTTTTTACAAACAGGTACGCATATATATATATAT [XGTACX_site5081] | 10.1 ± 0.47
AAAATTTAAAAATGGACACACACAAAAAATAATACT [CACACA_site7972] | 9.09 ± 0.44
CATCCATTATTAATATGTACATATGTATATATATTA [XGTACX_site1318] | 8.61 ± 0.3
CACATACACATACAAACACACATTATATATATATAT [CACACA_site8460] | 10 ± 0.38
TTTTTTTTTTTTTTTTTTTTTTTCTTTATTTTTTTT [CACACA_negctrl_site703] | 7.95 ± 0.5
GAAAAAAAAAAAAGGGGTACATTTATTTTATCAATA [XGTACX_site8331] | 8.29 ± 0.26
TATAAATATAGACACACACACACACCGAAGCGTAGC [CACACA_site6180] | 8.69 ± 0.53
